# Measured values reported in PubChem BioAssay (Tox21).
# Several values for one entry are separate records, joined by “and”; a condition that tells them apart may be missing. Equal values may be shown once. Inconclusive results, whose numbers are uncertain, are shown with a selection of clear calls. For some assays here: A potency beside an inconclusive call is a rough fit, not a confirmed value. Activity calls are given as the source filed them. Unless noted, the call rests on the fitted dose curve; in most records, active means well fitted curve in the direction sought with a large enough effect in the repeat runs; inconclusive means weak or mixed curves; inactive means no such curve, though single readings can be large; an effect the other way counts as inactive or inconclusive.
# Columns and labels:
# [1] = qHTS assay to identify small molecule agonists of the endoplasmic reticulum stress response signaling pathway - cell viability counter screen (AID 1159517; calls by dose curve; further: nearly all actives have a fitted effect of over 50% in size; further: potency means the concentration at half of the fitted maximal effect;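 on activity change, negative = cytotoxicity: HeLa cells carrying an ER stress response element beta-lactamase reporter; on the % scale 0 is the no-effect control and ±100 the full control effect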)
# Procedure, shortened: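 Cpd-treated ESRE-bla HeLa (5 hr, 37 C) → LiveBLAzer 2 hr RT → CellTiter-Glo 30 min RT → luminescence.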
# [2] = biological target: Peroxisome proliferator-activated receptor delta (Homo sapiens) (UniProt Q03181); experiment: qHTS assay to identify small molecule agonists of the peroxisome proliferator-activated receptor delta (PPARd) signaling pathway (AID 743212; calls by dose curve; further: potency means the concentration at half of the fitted maximal effect); details: HEK293H PPARd-UAS-bla, beta-lactamase FRET ratio, 17 h; activation: at 62.6 µM (top of the series) unless noted
# UniProt Q03181, sequence (Q03181 whole entry, looked up): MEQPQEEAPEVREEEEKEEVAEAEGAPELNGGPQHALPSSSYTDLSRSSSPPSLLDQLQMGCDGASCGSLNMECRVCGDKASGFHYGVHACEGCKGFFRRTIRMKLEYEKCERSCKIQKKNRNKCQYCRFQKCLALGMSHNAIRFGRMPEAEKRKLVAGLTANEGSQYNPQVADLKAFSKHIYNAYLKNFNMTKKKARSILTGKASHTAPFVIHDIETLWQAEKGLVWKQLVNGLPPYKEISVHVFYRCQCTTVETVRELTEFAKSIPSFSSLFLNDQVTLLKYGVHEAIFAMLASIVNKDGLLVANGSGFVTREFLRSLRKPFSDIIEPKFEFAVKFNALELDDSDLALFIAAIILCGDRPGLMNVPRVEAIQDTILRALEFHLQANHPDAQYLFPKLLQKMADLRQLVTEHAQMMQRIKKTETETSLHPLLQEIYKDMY
# Procedure, shortened: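 Cells expressing a UAS-driven beta-lactamase reporter (PPARd-bla HEK293H) were given test compounds after a 5 h settle and kept at 37 C. Reporter activity was then measured as FRET fluorescence using LiveBLAzer B/G substrate.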
# [3] = qHTS assay to identify small molecule antagonists of the peroxisome proliferator-activated receptor delta (PPARd) signaling pathway - cell viability counter screen (AID 743213); details: PPARd-bla HEK293H viability, CellTiter-Glo luminescence, 17 h; viability change, negative = cytotoxic: at 62 µM (top of the series) unless noted; further: nearly all actives have a fitted effect of over 50% in size; further: potency means the concentration at half of the fitted maximal effect; on viability change, negative = cytotoxic: on the % scale 0 is the no-effect control and ±100 the full control effect
# Procedure, shortened: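 In this counter screen, HEK293H cells carrying a UAS-beta-lactamase reporter are co-treated with test compounds and 300 nM L165041 (final) for 17 h at 37 C; cell viability is quantified by CellTiter-Glo luminescence.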
# [4] = qHTS assay to identify small molecule antagonists of the farnesoid-X-receptor (FXR) signaling pathway - cell viability counter screen (AID 743221; active means well fitted cell-killing curve with a large enough effect in the repeat runs, not every such curve was filed as active; inconclusive means weak or mixed curves, or effect the other way; inactive means no such curve, though single readings can be large or run the other way; further: potency means the concentration at half of the fitted maximal effect; nearly all actives have a fitted effect of over 50% in size); details: FXR-bla HEK293T viability, CellTiter-Glo luminescence, 16 h; activity change, negative = cytotoxicity: at 62.6 µM (top of the series)
# Procedure, shortened: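 Cytotoxicity counter screen run in the FXR-bla reporter wells: HEK 293T cells exposed to compound with 50 uM (final) chenodeoxycholic acid for 16 h, 37 C, then viability measured by CellTiter-Glo luminescence after 30 min, room temperature.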
# [5] = biological target: Vitamin D3 receptor (Homo sapiens) (UniProt P11473); experiment: qHTS assay to identify small molecule antagonists of the vitamin D receptor (VDR) signaling pathway (AID 743223; active means well fitted inhibition curve with a large enough effect in the signal ratio in the repeat runs, not every such curve was filed as active; inconclusive means weak or mixed curves, or effect the other way; inactive means no such curve, though single readings can be large or run the other way; the % refers to the signal ratio; further: potency means the concentration at half of the fitted maximal effect; on activity change, negative = inhibition: on the % scale 0 is the no-effect control and ±100 the full control effect); details: VDR-UAS-bla HEK293T, beta-lactamase FRET ratio, 16 h; activity change, negative = inhibition: at 61 µM (top of the series) unless noted
# UniProt P11473, sequence (P11473 whole entry, looked up): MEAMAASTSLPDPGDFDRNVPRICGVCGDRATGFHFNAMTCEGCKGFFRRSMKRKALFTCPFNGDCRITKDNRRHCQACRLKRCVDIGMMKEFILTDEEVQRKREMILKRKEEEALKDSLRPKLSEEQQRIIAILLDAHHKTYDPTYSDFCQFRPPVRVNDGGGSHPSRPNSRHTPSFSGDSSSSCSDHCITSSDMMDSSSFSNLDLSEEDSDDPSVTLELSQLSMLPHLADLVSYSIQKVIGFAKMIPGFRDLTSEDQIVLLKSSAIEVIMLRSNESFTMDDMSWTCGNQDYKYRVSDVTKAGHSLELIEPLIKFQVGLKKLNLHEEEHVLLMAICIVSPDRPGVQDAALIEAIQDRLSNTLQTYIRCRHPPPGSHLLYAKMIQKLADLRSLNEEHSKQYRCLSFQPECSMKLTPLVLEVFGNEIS
# Procedure, shortened: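 Antagonist mode: compound added to VDR-bla cells alongside agonist 1alpha,25-dihydroxyvitamin D3 (3 nM final), incubation 16 h at 37C. Read-out is LiveBLAzer FRET fluorescence, 2 h at room temperature.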
# [6] = qHTS assay to identify small molecule agonists of the vitamin D receptor (VDR) signaling pathway - cell viability counter screen (AID 743224); details: VDR-bla HEK293T viability, CellTiter-Glo luminescence, 16 h; activity change, negative = cytotoxicity: at 62.6 µM (top of the series); further: potency means the concentration at half of the fitted maximal effect; nearly all actives have a fitted effect of over 50% in size
# Procedure, shortened: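 In parallel with the bla FRET readout, cytotoxicity toward VDR-bla cells after 16 h compound exposure was assessed by CellTiter-Glo, with luminescence recorded after a 30 min room-temperature incubation.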
# [7] = qHTS assay to identify small molecule antagonists of the vitamin D receptor (VDR) signaling pathway - cell viability counter screen (AID 743225); details: VDR-bla HEK293T viability, CellTiter-Glo luminescence, 16 h; viability change, negative = cytotoxic: at 61 µM (top of the series) unless noted
# Procedure, shortened: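 Cytotoxicity counter screen read by CellTiter-Glo luminescence (30 min, room temperature) in the same wells as the VDR-bla antagonist readout. HEK 293T VDR-UAS-bla cells had 16 h at 37C with compound and 3 nM (final) 1-alpha,25-dihydroxyvitamin D3, then 2 h with FRET substrate.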
# [8] = qHTS assay to identify small molecule antagonists of the retinoid-related orphan receptor gamma (ROR-gamma) signaling pathway - cell viability counter screen (AID 1159520); further: nearly all actives have a fitted effect of over 50% in size; further: potency means the concentration at half of the fitted maximal effect
# Procedure, shortened: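 Tet-on ROR gamma CHO cells (1,000/well) were plated 4 hr, given compounds in DMSO for 2 hr at 37 C, then induced with 1 uM final doxycycline for 16 hr. Viability was read as ATP by CellTiter-Glo luminescence after 30 min.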
# [9] = biological target: Nuclear receptor ROR-gamma (Homo sapiens) (UniProt P51449); experiment: qHTS assay to identify small molecule antagonists of the retinoid-related orphan receptor gamma (ROR-gamma) signaling pathway (AID 1159521; further: nearly all actives have a fitted effect of over 50% in size; further: potency means the concentration at half of the fitted maximal effect)
# Procedure, shortened: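 Antagonist read-out: drop in luminescence (ONE-Glo) from an RORE-LUC reporter in CHO cells with doxycycline-inducible ROR-gamma; 2 hr compound pretreatment, 1 uM doxycycline, 16 hr incubation at 37 C.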
# [10] = qHTS assay to identify small molecule agonists of the AP-1 signaling pathway (AID 1159526; calls by dose curve; further: potency means the concentration at half of the fitted maximal effect); details: ME-180 (cervical carcinoma) AP-1-bla reporter, beta-lactamase FRET ratio, 5 h; activation: at 76.8 µM (top of the series) unless noted
# [11] = biological target: Retinoic acid receptor RXR-alpha (Homo sapiens) (UniProt P19793); experiment: qHTS assay to identify small molecule agonists of the RXR signaling pathway (AID 1159527; calls by dose curve; further: nearly all actives have a fitted effect of over 35% in size; further: potency means the concentration at half of the fitted maximal effect); details: HEK293T RXRa-UAS-bla, beta-lactamase ratio, 16 h; activation: at 76.8 µM (top of the series) unless noted
# UniProt P19793, sequence (P19793 whole entry, looked up): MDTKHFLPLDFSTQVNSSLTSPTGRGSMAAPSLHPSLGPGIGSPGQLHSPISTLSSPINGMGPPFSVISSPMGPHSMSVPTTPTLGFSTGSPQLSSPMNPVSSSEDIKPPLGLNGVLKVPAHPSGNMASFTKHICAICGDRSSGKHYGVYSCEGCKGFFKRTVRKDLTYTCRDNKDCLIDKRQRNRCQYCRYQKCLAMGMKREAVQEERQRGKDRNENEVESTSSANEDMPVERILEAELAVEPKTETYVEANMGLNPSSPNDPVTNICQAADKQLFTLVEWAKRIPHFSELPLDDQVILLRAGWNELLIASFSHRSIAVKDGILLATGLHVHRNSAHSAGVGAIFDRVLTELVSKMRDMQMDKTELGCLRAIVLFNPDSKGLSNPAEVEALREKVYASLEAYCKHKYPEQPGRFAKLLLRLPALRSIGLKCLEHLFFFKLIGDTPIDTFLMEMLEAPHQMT
# Procedure, shortened: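 Agonist-mode beta-lactamase reporter assay: HEK 293T RXR-alpha-UAS-bla cells treated 16 hr at 37 C with compounds, 9-cis retinoic acid as positive control. LiveBLAzer FRET substrate, 405 nm excitation, 460/530 nm emission.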
# [12] = qHTS assay to identify small molecule agonists of the RXR signaling pathway - cell viability counter screen (AID 1159529)
# Procedure, shortened: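 CellTiter-Glo luminescence gave viability in the wells also read for beta-lactamase. Cells (RXR-alpha-UAS-bla HEK 293T, 2% charcoal-stripped FBS medium) had 5 hr plating, then 16 hr compound exposure at 37 C; tetraoctyl ammonium bromide served as positive control.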
# [13] = qHTS assay to identify small molecule antagonists of the retinoid acid receptor (RAR) signaling pathway - cell viability counter screen (AID 1159551); further: nearly all actives have a fitted effect of over 35% in size; further: potency means the concentration at half of the fitted maximal effect
# Procedure, shortened: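 Viability of C3RL4 cells is quantified from ATP by luminescence after 6 h treatment at 37 C with compounds and 1 uM retinol.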
# [14] = biological target: Bile acid receptor (Homo sapiens) (UniProt Q96RI1); experiment: qHTS assay to identify small molecule antagonists of the farnesoid-X-receptor (FXR) signaling pathway (AID 743217; active means well fitted inhibition curve with a large enough effect in the signal ratio in the repeat runs, not every such curve was filed as active; inconclusive means weak or mixed curves, or effect the other way; inactive means no such curve, though single readings can be large or run the other way; the % refers to the signal ratio; further: on the % scale 0 is the no-effect control and ±100 the full control effect); details: HEK293T FXR-UAS-bla, beta-lactamase ratio, CDCA-stimulated, 16 h; activity change, negative = inhibition: at 62.6 µM (top of the series) unless noted
# UniProt Q96RI1, sequence (Q96RI1 whole entry, looked up): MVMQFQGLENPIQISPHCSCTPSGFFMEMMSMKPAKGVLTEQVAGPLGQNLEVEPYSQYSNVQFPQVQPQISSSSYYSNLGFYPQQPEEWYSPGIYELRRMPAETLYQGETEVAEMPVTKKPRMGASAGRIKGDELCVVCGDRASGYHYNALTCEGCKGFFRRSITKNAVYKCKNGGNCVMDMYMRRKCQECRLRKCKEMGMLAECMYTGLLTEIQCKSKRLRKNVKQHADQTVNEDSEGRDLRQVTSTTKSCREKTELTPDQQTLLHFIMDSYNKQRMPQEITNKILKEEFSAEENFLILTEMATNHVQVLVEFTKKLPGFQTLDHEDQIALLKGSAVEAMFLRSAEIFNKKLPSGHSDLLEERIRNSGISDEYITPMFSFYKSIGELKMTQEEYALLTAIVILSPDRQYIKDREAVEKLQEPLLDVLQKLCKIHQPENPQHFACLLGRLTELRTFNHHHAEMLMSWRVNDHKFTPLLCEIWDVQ
# Procedure, shortened: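 FRET fluorescence after 2 h room-temperature LiveBLAzer loading gives the readout. Prior step: FXR-bla HEK 293T cells, seeded and incubated 5 h, received test compounds plus 50 uM final CDCA for 16 h at 37 °C.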
# [15] = qHTS assay to identify small molecule agonists of the farnesoid-X-receptor (FXR) signaling pathway - cell viability counter screen (AID 743218); details: FXR-bla HEK293T viability, CellTiter-Glo luminescence, 16 h; viability change, negative = cytotoxic: at 62.6 µM (top of the series) unless noted; further: nearly all actives have a fitted effect of over 45% in size; further: potency means the concentration at half of the fitted maximal effect
# Procedure, shortened: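 Readout: CellTiter-Glo luminescence, 30 min RT, multiplexed after the FXR-bla FRET reading. HEK 293T FXR-UAS-bla cells received compound 5 h post-plating and were incubated 16 h at 37 C.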
# [16] = biological target: Peroxisome proliferator-activated receptor delta (Homo sapiens) (UniProt Q03181); experiment: qHTS assay to identify small molecule antagonists of the peroxisome proliferator-activated receptor delta (PPARd) signaling pathway (AID 743215; active means well fitted inhibition curve with a large enough effect in the signal ratio in the repeat runs, not every such curve was filed as active; inconclusive means weak or mixed curves, or effect the other way; inactive means no such curve, though single readings can be large or run the other way; the % refers to the signal ratio;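 further: cells stimulated with agonist L165041 at 300 nM final during compound exposure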; further: potency means the concentration at half of the fitted maximal effect); details: HEK293H PPARd-UAS-bla, beta-lactamase FRET ratio, antagonist, 17 h
# Procedure, shortened: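 Fluorescence from cleaved LiveBLAzer B/G FRET substrate (2 h, room temperature) reports PPARd-driven beta-lactamase in HEK293H UAS-bla cells. Cells had been treated 17 h at 37 C with compound plus 300 nM final L165041.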
# [17] = biological target: Bile acid receptor (Homo sapiens) (UniProt Q96RI1); experiment: qHTS assay to identify small molecule agonists of the farnesoid-X-receptor (FXR) signaling pathway (AID 743220; active means well fitted activation curve with a large enough effect in the signal ratio in the repeat runs, not every such curve was filed as active; inconclusive means weak or mixed curves, or effect the other way; the % refers to the signal ratio; further: potency means the concentration at half of the fitted maximal effect); details: HEK293T FXR-UAS-bla, beta-lactamase FRET ratio, 16 h; activation: at 62.6 µM (top of the series) unless noted
# Procedure, shortened: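 FXR-UAS-bla HEK 293T cells carrying a UAS-driven beta-lactamase reporter were plated for 5 h at 37C/5% CO2, then exposed to DMSO-dissolved Tox21 10K compounds for 16 h at 37C. A LiveBLAzer B/G FRET substrate was loaded for 2 h at room temperature before fluorescence reading.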
# [18] = biological target: Vitamin D3 receptor (Homo sapiens) (UniProt P11473); experiment: qHTS assay to identify small molecule agonists of the vitamin D receptor (VDR) signaling pathway (AID 743222; calls by dose curve; further: potency means the concentration at half of the fitted maximal effect); details: HEK293T VDR-UAS-bla, beta-lactamase FRET ratio, 16 h; activation: at 63.5 µM (top of the series) unless noted
# Procedure, shortened: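 Following 4 h attachment at 37C, VDR-bla cells (2,000 per well) received DMSO-dissolved compounds or controls. After 16 h incubation, LiveBLAzer B/G FRET substrate was added and fluorescence read 2 h later at room temperature.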
# [19] = qHTS assay to identify small molecule agonists of the AP-1 signaling pathway - cell viability counter screen (AID 1159525; calls by dose curve; further: potency means the concentration at half of the fitted maximal effect; nearly all actives have a fitted effect of over 55% in size)
# Procedure, shortened: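 Each titration point was normalised to DMSO and tetra n-octyl ammonium bromide controls. The read was Cell Titer Glo luminescence after 30 min at RT, following 5 h compound exposure of ME-180 AP-1-bla cells at 37 °C.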
# [20] = ratio activity, negative = inhibition: at 62 µM (top of the series) unless noted
# Tags describe the fitted curve by direction and shape or compound fluorescence and quenching.
smiles,measurement,setting,value
CC1(C)CC(N)CC(C)(CN)C1 (stereo not given),Potency,[1],inactive
CN(C)CC/C=C1\c2ccccc2Sc2ccc(Cl)cc21,Potency,[2],"inconclusive: 26.6 µM [rising, partial curve]"
same,Potency,[3],active: 13.3 µM
same,Potency,[4],"inconclusive: 23.7 µM [falling, partial curve, poor fit]"
same,Potency,[5],inactive
same,Potency,[6],"inconclusive: 13.3 µM [cytotoxic, partial curve, poor fit]"
same,Potency,[7],"inconclusive: 21.3 µM [cytotoxic, partial curve]"
same,Potency,[1],"inconclusive: 26.8 µM [cytotoxic, single point]"
same,Potency,[8],"inconclusive: 29.8 µM [cytotoxic, partial curve, poor fit]"
same,Potency,[9],"inconclusive: 33.5 µM [inhibitor, single point]"
same,Potency,[10],inconclusive: 8.49 µM
same,Potency,[11],inconclusive: 19 µM [inhibitor]
same,Potency,[12],"inconclusive: 19 µM [cytotoxic, partial curve]"
same,Potency,[13],"inconclusive: 26.6 µM [cytotoxic, partial curve, poor fit]"
COC(=O)C(C)=O,Potency,[3],inactive
same,Potency,[5],inactive
same,Potency,[1],inactive
same,Potency,[8],inactive
same,Potency,[9],inactive
same,Potency,[11],inactive
same,Potency,[12],inconclusive: 0.0012 µM
CC1CCc2nccnc21 (stereo not given),Potency,[3],"inconclusive: 5.49 µM [cytotoxic, single point]"
same,"activity change, negative = inhibition",[14],inconclusive: -1.78%
same,Potency,[1],"inconclusive: 8.71 µM [cytotoxic, partial curve, poor fit]"
same,Potency,[8],inactive
same,activation,[11],inconclusive: 9.49%
C=CCCCCCCCCCC,Potency,[15],inactive
same,Potency,[7],"inconclusive: 21.9 µM [cytotoxic, single point]"
same,Potency,[1],"inconclusive: 19.5 µM [rising, full curve, poor fit]"
same,Potency,[8],inactive
same,Potency,[10],inactive
C=C1CC[C@H](O)CC1=C/C=C1\CCC[C@]2(C)[C@@H]([C@H](C)/C=C/[C@H](C)C(C)C)CC[C@@H]12,Potency,[16]; [20],"inconclusive: 27.3 µM [fluorescent, partial curve]"
same,Potency,[15],"inconclusive: 54.5 µM [cytotoxic, single point] and inconclusive: 54.9 µM [cytotoxic, single point]"
same,Potency,[17],"inconclusive: 49 µM [rising, partial curve, poor fit]"
same,Potency,[4],"inconclusive: 54.5 µM [falling, single point]"
same,Potency,[18],"active: 3.86 µM and inconclusive: 54.9 µM [fluorescent, partial curve, poor fit]"
same,Potency,[5],"inconclusive: 54.5 µM [fluorescent, partial curve]"
same,"activity change, negative = inhibition",[5],inconclusive: -0.314%
same,Potency,[6],"inconclusive: 54.5 µM [cytotoxic, single point] and inconclusive: 34.7 µM [cytotoxic, partial curve]"
same,Potency,[7],"inconclusive: 4.36 µM [cytotoxic, full curve]"
same,Potency,[1],"inconclusive: 0.217 µM [cytotoxic, single point]"
same,Potency,[8],"inconclusive: 68 µM [cytotoxic, single point] and inconclusive: 68.6 µM [cytotoxic, single point]"
same,Potency,[19],"inconclusive: 61.1 µM [cytotoxic, single point]"
same,Potency,[12],"inconclusive: 54.5 µM [cytotoxic, single point] and active: 24.5 µM"
Cc1cn([C@H]2C[C@H](N=[N+]=[N-])[C@@H](CO)O2)c(=O)[nH]c1=O,"ratio activity, negative = inhibition",[16]; at 62 µM (top of the series),inactive: -2.39%
same,"ratio activity, negative = inhibition",[16]; at 80.4 µM (top of the series),inactive: 7.19%
same,"ratio activity, negative = inhibition",[16]; [20],inconclusive: -5.08%
same,Potency,[15],"inconclusive: 6.3 nM [rising, full curve, poor fit]"
same,Potency,[1],"inconclusive: 1.2 µM [cytotoxic, full curve, poor fit]"
same,Potency,[8],inactive
same,Potency,[11],inconclusive: 61.6 µM [activator]
same,activation,[11],inconclusive: 14.7%
same,Potency,[13],inactive
CCCCCCCCCCCCS,Potency,[16]; [20],"inconclusive: 24.5 µM [rising, single point]"
same,"activity change, negative = inhibition",[5],inconclusive: 20.8%
same,Potency,[7],"inconclusive: 1.23 µM [cytotoxic, single point]"
same,Potency,[1],inactive
same,Potency,[8],inactive
same,Potency,[11],inconclusive: 15.4 µM [activator]
same,Potency,[13],inactive
COc1ccc(C2C(=O)c3ccccc3C2=O)cc1,Potency,[6],"inconclusive: 9.44 µM [cytotoxic, partial curve, poor fit]"
same,Potency,[1],"inconclusive: 9.52 µM [cytotoxic, partial curve, poor fit]"
same,Potency,[8],"inconclusive: 23.7 µM [cytotoxic, partial curve, poor fit]"
same,Potency,[19],"inconclusive: 0.239 µM [cytotoxic, single point]"
COC(=O)c1ccccc1C,Potency,[1],"inconclusive: 61.7 µM [rising, partial curve, poor fit]"
